Sequences with one replicate were seen in a single cluster, so their values are uncertain.
System: ATP
Assay: switch fluorescence ratio, 500 uM ATP over buffer (Cy3 cluster intensity, sum of 5 cycles each) (fold (ratio)); higher = stronger signal-on switching upon ATP binding; sequences stand for … in TCGTCGGCAGCGTCAGATGTGTATAAGAGACAGTTTTTTTTTTTTTTTTTTTTTTTTT…TC
Details: aptamer strand: ATP DNA aptamer (quencher-CACCTGGGGGAGTATTGCGGAGGAAGG + anchor), 100 nM annealed; ATP concentration: 500 uM; one replicate
Method in brief: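 Clusters with intensities outside 100-1000 RFU were excluded. The remaining Cy3-labelled switching-strand clusters on a modified Illumina MiSeq flow-cell had been annealed to 100 nM quencher-labelled ATP aptamer and imaged in selection buffer, then after 15 min with 500 uM ATP at 22 °C, for five cycles separated by NaOH stripping and re-annealing. The fluorescence ratio, averaged per switch-domain sequence, is each cluster's summed target-cycle Cy3 intensity over its summed buffer-cycle Cy3 intensity.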
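Also: ATP exposure 15 min at 22 °C before imaging.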

Sequence	switch fluorescence ratio
AAATTTGATA	1.03
TCGTTCGGGT	1.04
CCAGTGGAGA	1.04
GGGCAAAACC	1.06
TGCTAAACAT	1.05
CGACAAGATT	1.35
AATTCCAGGC	0.887
CCAAGTCTTA	1.02
ATAATCGTA	1
AGAATTACCC	2.06
TATGAGGGTC	0.977
TACGTCTACT	1.2
ACTACGATTT	1.05
GTAACAAGCC	1.04
CTTACGGATG	1.02
GTACTGGTAC	1.05
GATGCCATGG	0.98
AGAGATTCAG	1.02
CTGTCGGTTT	1
TTAGAGTAAC	0.997
AGGAAGCACT	1.02
TCCTCGGATA	1.47
CTGGGACTCG	1.02

Sequence	switch fluorescence ratio
CACAAGATTG	1.01
GAAAACCATG	1.04
CTAGTCCTTA	0.981
AAGTTATCCT	1.03
TGGTTGGG	0.99
CGTTTTGGAG	0.964
TTAAAAACGG	1.25
GATTAGAGTG	0.986
CATGAGCCTA	0.866
TTCACCAGA	1.06
TTCTTCCGAG	2.73
CCTCGATTGG	1.03
GTCTTTGGGG	0.998
CGAATCGGGA	1.04
CGATCGTAGC	1.18
CGGGCTAAGC	0.993
CGCCTTTCTC	1.68
AAGAATAGGT	0.997
AGGAAATCAT	0.969
ATAATCCAAG	1.01
GGAGAGATGT	0.973
CAGGAATAG	1.63
AAACTGATGT	0.986

Sequence	switch fluorescence ratio
AGACGCGAGC	1.11
CGTTGTAGAA	0.978
TTACATGAGT	1.02
TTATGGAGAG	0.982
TAGGTAGCCA	0.964
ATACTCGACA	1.31
GTTAGGGTCG	1.1
TGGTAAGGAA	1.01
GCCGAATTTA	1.01
AAAGCTATTG	0.988
TATGAGTGTA	1.02
ACTTCAGTG	0.991
CGCGGCTGTG	1.03
GATCGGCGAT	0.961
CACTATTGAT	1
ATTATGCGCC	0.987
ATCCAGCCGG	1.06
GCATCACCC	1.13
TTTCGAAGT	1.02
TCATCTCAGC	1.04
TGCCATTTGG	0.959
GCGACCGTTT	1.15
CGGTAAGACT	1.11

Sequence	switch fluorescence ratio
CTAGTACAGG	1
CTCACCCTTG	1.25
AGATTGTATT	0.993
TTCTCCCGCC	2.94
ATGCACAGCG	0.953
CTGGATCGGG	1.01
AAACGCGGGG	1.21
CCCGGGGTTG	1.04
TCTGGGCGTT	0.965
ATGGCGAGG	0.954
TGATGCTTGC	0.989
AAGGCCCGGC	0.984
CGAATTTACG	1
GGTTCCTGAA	1.01
TTAAATAGGC	1.01
GGTTAACGTT	1
TTATTTGACA	1.04
TTAAAGCGAA	1
GCCCGAGGGA	0.991
AGCGGTCGCC	0.958
CGTCTATTCA	0.976
GCCGCCACCA	1.05
TGGCTGCACC	1.05

Sequence	switch fluorescence ratio
AATTTGAG	0.999
GCCCGCCCAG	1.19
CGAATCAAGC	1.19
GCGCTAAGAT	1.04
GCACTTTTTT	1.04
TCAAAATTAC	1.3
GGGTACGTGC	1.03
CGGTCCCATC	1.07
GCGTGTTGGG	1.05
TTGTATAAAA	0.963
TTGAGCGG	1.15
CTGATGGAGA	1
GGGACCTCGC	1.04
GCGGTTAGGT	0.955
AGCTGGGGCC	1.01
GTCCTAAGAT	0.987
CAGGTGATAA	1.12
TGTTCGAGTC	1.04
GGCAGCCACG	1.03
CCCTACGTTC	1.54
CCAGCGGAAT	1.06
CATACCGGAT	1.06
CAGTCTAGTA	1.02

Sequence	switch fluorescence ratio
TAGTTCCGGG	1.03
CCAAGCGCAT	4.67
GTAAACAGGG	0.987
ATTTCGCCTT	1.05
TGTGGCAGGG	0.989
GTGAAGAACC	1.08
TATCAGGATT	0.978
CTGAACGGGT	1.01
TCAAAAGTA	0.986
AGAAAGCTCA	1.02
ATGGTATTAC	1.06
AACAAGAACG	1.06
CCGTCAGTGG	1.38
CGTCAGTGGG	0.986
ACACACGTCG	1.33
GAATTTTCAT	1
GACAGTTAAT	0.988
GAAAATGTTA	0.865
AGGACATGTG	1.09
GACTTGCTTG	0.982
AACCTCGGGT	1.01
GTTCTTTG	0.974
ACAGTAGTTG	1.03

Sequence	switch fluorescence ratio
CAACTGAGGT	0.965
AGCGATCTCA	1.15
AGTGATTGTG	0.951
TGGTGAAATA	1.03
GCTAATACGG	1.6
TCGAAGCTAG	1.53
AGAAATGACT	1.01
TGAAGGTGAT	1.08
TGTCCTCGGT	1.04
TTTGTGACGC	1.03
TACGGTCTGT	0.976
GGGTTCTTGC	0.967
AAAGTATCAA	0.964
TATCTGATAA	1.01
GGGGGCGCGC	0.977
ACTGTTTAAT	0.984
TCGGGTGCCT	1.01
GCCTTCTGTA	1.07
ACGAAAAAGC	0.987
